Reference: patent publication US8986997B2, “Methods and compositions for increasing biological molecule stability” (The Regents of the University of Michigan, priority 2007, dated 2015)

Target: T1, E7 colicin (Escherichia coli, UniProt Q47112)
T1 sequence (Q47112 1-576): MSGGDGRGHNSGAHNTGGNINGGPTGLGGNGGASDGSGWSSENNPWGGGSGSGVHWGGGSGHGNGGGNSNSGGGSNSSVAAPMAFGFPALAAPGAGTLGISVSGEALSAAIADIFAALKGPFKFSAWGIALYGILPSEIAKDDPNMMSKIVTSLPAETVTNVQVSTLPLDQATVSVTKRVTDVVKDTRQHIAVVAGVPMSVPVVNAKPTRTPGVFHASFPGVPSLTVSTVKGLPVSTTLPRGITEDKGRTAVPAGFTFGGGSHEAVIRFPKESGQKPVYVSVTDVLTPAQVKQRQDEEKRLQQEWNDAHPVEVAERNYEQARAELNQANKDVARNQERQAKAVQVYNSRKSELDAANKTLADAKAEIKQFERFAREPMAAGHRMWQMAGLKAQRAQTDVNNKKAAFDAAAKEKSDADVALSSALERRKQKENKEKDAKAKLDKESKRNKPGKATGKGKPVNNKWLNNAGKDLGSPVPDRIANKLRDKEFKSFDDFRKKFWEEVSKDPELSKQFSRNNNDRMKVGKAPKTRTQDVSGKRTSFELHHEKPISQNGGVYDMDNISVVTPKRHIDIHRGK
Test: In vivo colicin activity measurements
Conditions: E. coli JM83 expressing the Im7 variant; in words

B1: Wildtype Im7: small helical protein that confers immunity to bacterial colicin E7 (protein)
chain: MELKNSISDYTEAEFVQLLKEIEKENVAATDDVLDVLLEHFVKITEHPDGTDLIYYPSDNRDDSPEGIVKEIKEWRAANGKPGFKQG
- ability to inhibit killing by exogenously added colicin E7: could survive the maximum concentration of applied colicin
